# Laboratory results published in the supplement of paper PMC8728848.
# The list shows a part of the results.
# B1: PX14375C-bth-509-28-509 (Bacteroides thetaiotaomicron) (protein)
# chain: RSPQGQFTEDDNPNALVNGKIYNVYTMMRSFDITAGTPAIAIHYLRSEDSEKGSIPSDGSDVAEMYDDFLYTPTNGLLGSYWGKNYAIIYQCNDILDAIAEKETAGQTETEDIINKGEASFFRAYCYFNLVRAFGEVPLVTYKINDASEANIPKTTADKIYEQIDTDLKTAEESLPETWSTEYTGRLTWGAARSLHARTYMMRSDWDNMYKASTDVINKGLYNLKTPYNEIFTDDGENSGGSIFELQCTATAALPQSDVIGSQFCEVQGVRGAGQWDLGWGWHMATQLMADAYETGDPRKNATLLYFRKTDDEPITPENTNEPYGESPISPAMGAYFNKKAYTDPALRKEYTNKGFWVNIRLIRYSDVVLMAAEAANEKNIPGEAVDYLEMVRARARGTNTNILPKITTNDQGELREAIRHERRVELGLEPDRFYDLVRWGIASEVLHAAGKVNYQDKNALLPLPQSEIDKSKGVLVQNPDY
# Experiments:
# Assay in all cases: glycan array binding signal (z-score within array); higher = stronger binding
# Details in all cases: glycan notation: IUPAC condensed, linker removed
# [1] = molecular target: Neu5Ac(a2-3)Gal(b1-4)GlcNAc(b1-2)[Neu5Ac(a2-3)Gal(b1-4)GlcNAc(b1-4)]Man(a1-3)[GlcNAc(b1-4)][Neu5Ac(a2-3)Gal(b1-4)GlcNAc(b1-4)Man(a1-6)]Man(b1-4)GlcNAc(b1-4)GlcNAc
# How it was run: (§1)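 The Consortium for Functional Glycomics database supplied 3228 glycan arrays, of which those lacking an available protein sequence were dropped. The binding signal, a within-array Z-score, was averaged across arrays of the same protein sequence and across linkers. Negative scores can be read as non-binding.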
# [2] = molecular target: Neu5Ac(a2-3)Gal(b1-4)GlcNAc(b1-2)[Neu5Ac(a2-3)Gal(b1-4)GlcNAc(b1-6)]Man(a1-6)[Neu5Ac(a2-3)Gal(b1-4)GlcNAc(b1-2)Man(a1-3)]Man(b1-4)GlcNAc(b1-4)GlcNAc
# How it was run: as §1
# [3] = molecular target: Neu5Ac(a2-3)Gal(b1-4)GlcNAc(b1-2)[Neu5Ac(a2-3)Gal(b1-4)GlcNAc(b1-6)]Man(a1-6)[Neu5Ac(a2-3)Gal(b1-4)GlcNAc(b1-2)Man(a1-3)][GlcNAc(b1-4)]Man(b1-4)GlcNAc(b1-4)GlcNAc
# How it was run: as §1
# [4] = molecular target: Neu5Ac(a2-3)Gal(b1-4)GlcNAc(b1-3)Gal
# How it was run: as §1
# [5] = molecular target: Neu5Ac(a2-3)Gal(b1-4)GlcNAc(b1-3)Gal(b1-3)GlcNAc
# How it was run: as §1
# [6] = molecular target: Neu5Ac(a2-3)Gal(b1-4)GlcNAc(b1-3)Gal(b1-4)GlcNAc
# How it was run: as §1
# [7] = molecular target: Neu5Ac(a2-3)Gal(b1-4)GlcNAc(b1-3)Gal(b1-4)GlcNAc(b1-2)Man(a1-3)[Neu5Ac(a2-3)Gal(b1-4)GlcNAc(b1-3)Gal(b1-4)GlcNAc(b1-2)Man(a1-6)]Man(b1-4)GlcNAc(b1-4)GlcNAc
# How it was run: as §1
# [8] = molecular target: Neu5Ac(a2-3)Gal(b1-4)GlcNAc(b1-3)Gal(b1-4)GlcNAc(b1-3)Gal(b1-4)GlcNAc
# How it was run: as §1
# [9] = molecular target: Neu5Ac(a2-3)Gal(b1-4)GlcNAc(b1-3)Gal(b1-4)GlcNAc(b1-3)Gal(b1-4)GlcNAc(b1-2)Man(a1-3)[Neu5Ac(a2-3)Gal(b1-4)GlcNAc(b1-3)Gal(b1-4)GlcNAc(b1-3)Gal(b1-4)GlcNAc(b1-2)Man(a1-6)]GalNAc
# How it was run: as §1
# [10] = molecular target: Neu5Ac(a2-3)Gal(b1-4)GlcNAc(b1-3)Gal(b1-4)GlcNAc(b1-3)GalNAc
# How it was run: as §1
# [11] = molecular target: Neu5Ac(a2-3)Gal(b1-4)GlcNAc(b1-3)Gal(b1-4)GlcNAc(b1-3)[Neu5Ac(a2-3)Gal(b1-4)GlcNAc(b1-3)Gal(b1-4)GlcNAc(b1-6)]GalNAc
# How it was run: as §1
# [12] = molecular target: Neu5Ac(a2-3)Gal(b1-4)GlcNAc(b1-3)Gal(b1-4)GlcNAc(b1-6)[Gal(b1-3)]GalNAc
# How it was run: as §1
# [13] = molecular target: Neu5Ac(a2-3)Gal(b1-4)GlcNAc(b1-3)Gal(b1-4)[Fuc(a1-3)]GlcNAc
# How it was run: as §1
# [14] = molecular target: Neu5Ac(a2-3)Gal(b1-4)GlcNAc(b1-3)GalNAc
# How it was run: as §1
# [15] = molecular target: Neu5Ac(a2-3)Gal(b1-4)GlcNAc(b1-3)[Neu5Ac(a2-3)Gal(b1-4)GlcNAc(b1-6)]GalNAc
# How it was run: as §1
# [16] = molecular target: Neu5Ac(a2-3)Gal(b1-4)GlcNAc(b1-6)GalNAc
# How it was run: as §1
# [17] = molecular target: Neu5Ac(a2-3)Gal(b1-4)GlcNAc(b1-6)[Gal(b1-3)]GalNAc
# How it was run: as §1
# [18] = molecular target: Neu5Ac(a2-3)Gal(b1-4)GlcNAc(b1-6)[Neu5Ac(a2-3)Gal(b1-3)]GalNAc
# How it was run: as §1
# [19] = molecular target: Neu5Ac(a2-3)Gal(b1-4)GlcNAc6S
# How it was run: as §1
# [20] = molecular target: Neu5Ac(a2-3)Gal(b1-4)[Fuc(a1-3)]GlcNAc
# How it was run: as §1
# [21] = molecular target: Neu5Ac(a2-3)Gal(b1-4)[Fuc(a1-3)]GlcNAc(b1-2)Man
# How it was run: as §1
# [22] = molecular target: Neu5Ac(a2-3)Gal(b1-4)[Fuc(a1-3)]GlcNAc(b1-3)Gal
# How it was run: as §1
# [23] = molecular target: Neu5Ac(a2-3)Gal(b1-4)[Fuc(a1-3)]GlcNAc(b1-3)Gal(b1-4)GlcNAc
# How it was run: as §1
# [24] = molecular target: Neu5Ac(a2-3)Gal(b1-4)[Fuc(a1-3)]GlcNAc(b1-3)Gal(b1-4)[Fuc(a1-3)]GlcNAc(b1-3)Gal(b1-4)[Fuc(a1-3)]GlcNAc
# How it was run: as §1
# [25] = molecular target: Neu5Ac(a2-3)Gal(b1-4)[Fuc(a1-3)]GlcNAc(b1-3)GalNAc
# How it was run: as §1
# [26] = molecular target: Neu5Ac(a2-3)Gal(b1-4)[Fuc(a1-3)]GlcNAc(b1-6)[Gal(b1-3)]GalNAc
# How it was run: as §1
# [27] = molecular target: Neu5Ac(a2-3)Gal(b1-4)[Fuc(a1-3)]GlcNAc(b1-6)[Neu5Ac(a2-3)Gal(b1-3)]GalNAc
# How it was run: as §1
# [28] = molecular target: Neu5Ac(a2-3)Gal(b1-4)[Fuc(a1-3)]GlcNAc6S
# How it was run: as §1
# [29] = molecular target: Neu5Ac(a2-3)Gal6S(b1-4)GlcNAc
# How it was run: as §1
# [30] = molecular target: Neu5Ac(a2-3)Gal6S(b1-4)[Fuc(a1-3)]GlcNAc
# How it was run: as §1
# Neu5Ac(a2-3)GalNAc = molecular target: Neu5Ac(a2-3)GalNAc
# How it was run: as §1
# [31] = molecular target: Neu5Ac(a2-3)GalNAc(b1-4)GlcNAc
# How it was run: as §1
# [32] = molecular target: Neu5Ac(a2-3)[GalNAc(b1-4)]Gal(b1-4)Glc
# How it was run: as §1
# [33] = molecular target: Neu5Ac(a2-3)[GalNAc(b1-4)]Gal(b1-4)GlcNAc
# How it was run: as §1
# [34] = molecular target: Neu5Ac(a2-3)[GalNAc(b1-4)]Gal(b1-4)GlcNAc(b1-3)GalNAc
# How it was run: as §1
# [35] = molecular target: Neu5Ac(a2-3)[Neu5Ac(a2-6)]GalNAc
# How it was run: as §1
# Neu5Ac(a2-6)Gal = molecular target: Neu5Ac(a2-6)Gal
# How it was run: as §1
binder,measurement,setting,value
B1,glycan array binding signal (z-score),[1],-0.258
same,glycan array binding signal (z-score),[2],0.442
same,glycan array binding signal (z-score),[3],-0.181
same,glycan array binding signal (z-score),[4],-0.186
same,glycan array binding signal (z-score),[5],-0.468
same,glycan array binding signal (z-score),[6],-0.222
same,glycan array binding signal (z-score),[7],0.037
same,glycan array binding signal (z-score),[8],-0.503
same,glycan array binding signal (z-score),[9],5.44
same,glycan array binding signal (z-score),[10],-0.201
same,glycan array binding signal (z-score),[11],-0.04
same,glycan array binding signal (z-score),[12],-0.22
same,glycan array binding signal (z-score),[13],-0.367
same,glycan array binding signal (z-score),[14],-0.438
same,glycan array binding signal (z-score),[15],0.019
same,glycan array binding signal (z-score),[16],-0.063
same,glycan array binding signal (z-score),[17],-0.149
same,glycan array binding signal (z-score),[18],-0.14
same,glycan array binding signal (z-score),[19],-0.321
same,glycan array binding signal (z-score),[20],-0.1
same,glycan array binding signal (z-score),[21],-0.271
same,glycan array binding signal (z-score),[22],-0.286
same,glycan array binding signal (z-score),[23],-0.087
same,glycan array binding signal (z-score),[24],-0.299
same,glycan array binding signal (z-score),[25],-0.014
same,glycan array binding signal (z-score),[26],-0.056
same,glycan array binding signal (z-score),[27],0.645
same,glycan array binding signal (z-score),[28],0.069
same,glycan array binding signal (z-score),[29],-0.485
same,glycan array binding signal (z-score),[30],-0.309
same,glycan array binding signal (z-score),Neu5Ac(a2-3)GalNAc,-0.31
same,glycan array binding signal (z-score),[31],-0.6
same,glycan array binding signal (z-score),[32],-0.197
same,glycan array binding signal (z-score),[33],-0.411
same,glycan array binding signal (z-score),[34],0.323
same,glycan array binding signal (z-score),[35],-0.456
same,glycan array binding signal (z-score),Neu5Ac(a2-6)Gal,-0.311
